Measured values as given in PubChem BioAssay (NCATS).
Several values for one entry are separate records, joined by “and”; a condition that tells them apart may be missing. Identical values can stand only once. This list was built around the results that the source calls inconclusive (neither active nor inactive); the mix of calls is not that of the screen. A call without a number means that no potency is given here. For some of these results: A potency beside an inconclusive call is a rough fit, not a confirmed value. Activity calls are given as the source filed them. Unless noted, the call rests on the fitted dose curve; in most records, active means well fitted curve in the direction sought with a large enough effect; inconclusive means small, poorly fitted or top-dose-only effect, or another doubt; inactive means no such curve, though single readings can be large; an effect the other way counts as inactive or inconclusive.

Tests used:
[1] = qHTS of pediatric cancer cell lines to identify multiple opportunities for drug repurposing: Primary screen for SK-N-MC cells (AID 1347093); conditions: SK-N-MC viability, CellTiter-Glo luminescence, 48 h; activity change, negative = cytotoxic: at 46 µM (top of the series); further: potency means the concentration at half of the fitted maximal effect
Procedure, shortened: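 Metabolically active cells were quantified by ATP-dependent luminescence (CellTiter-Glo, 15 min at room temperature) following 48 h treatment. Cells had been plated at 500-1,000 per well and settled for 5 h beforehand.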

[2] = qHTS of pediatric cancer cell lines to identify multiple opportunities for drug repurposing: Primary screen for OHS-50 cells (AID 1347103); conditions: OHS-50 osteosarcoma viability, CellTiter-Glo luminescence, 48 h; activity change, negative = cytotoxic: at 57.3 µM (top of the series); further: nearly all actives have a fitted effect of over 40% in size; further: potency means the concentration at half of the fitted maximal effect
Procedure, shortened: (§1)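 Cells (500-1,000/well) rested 5 h, then received compounds for 48 h; metabolically active cells were measured by CellTiter-Glo luminescence. Final concentrations spanned up to 46 µM (MIPE, 11-point) or 0.59 nM-46 µM (NPC, 8-point) in primary screens, 11-point in follow-ups.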

[3] = molecular target: Cytochrome P450 2D6 (Homo sapiens) (UniProt P10635); assay: Cytochrome P450 family 2 subfamily D member 6 (CYP2D6) small molecule antagonists: luciferase biochemical (cell-free) qHTS assay (AID 1645840; active means well fitted curve in the direction sought with a large enough effect in the repeat runs; inconclusive means weak or mixed curves; inactive means no such curve, though single readings can be large; an effect the other way counts as inactive or inconclusive; further: nearly all actives have a fitted effect of over 55% in size; further: potency means the concentration at half of the fitted maximal effect)
Procedure, shortened: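 P450-Glo CYP2D6 system: proluciferin substrate converted by enzyme to luciferin, read by luminescence proportional to activity. Enzyme-substrate mix with compound 10 min at room temperature, then NADPH regeneration 1 h before detection reagent.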

[4] = Primary qHTS for inhibitors of nuclear receptor binding SET domain protein 2 (NSD2) in an RCH-ACV wild type WT cells (2C) (AID 1645877); conditions: activity change, negative = cell killing: at 44.9 µM (top of the series) unless noted; further: nearly all actives have a fitted effect of over 70% in size; further: potency means the concentration at half of the fitted maximal effect
[5] = tested on: MKL-2; assay: qHTS assay to identify novel small-molecules to repurpose for Merkel cell carcinoma treatment (AID 1296009); conditions: MCC and control cell lines, CellTiter-Glo viability, 72 h; series mostly up to 46 µM; further: nearly all actives have a fitted effect of over 60% in size; further: potency means the concentration at half of the fitted maximal effect
Procedure, shortened: (§2)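 Cell viability measured by CellTiter-Glo following 72 hr compound treatment at 37 degree celsius, with NPC and MIPE libraries tested in 8- and 11-point concentration series.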

[6] = qHTS of pediatric cancer cell lines to identify multiple opportunities for drug repurposing: Primary screen for BT-37 cells (AID 1347094); further: potency means the concentration at half of the fitted maximal effect
Procedure, shortened: (§3)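 Readout: CellTiter-Glo luminescence, 48 h treatment. Controls DMSO (neutral) and bortezomib 2.3 µM final (positive). Potency and efficacy taken from primary-screen concentration-response curves.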

[7] = Primary qHTS for small molecule stabilizers of the endoplasmic reticulum resident proteome: Secreted ER Calcium Modulated Protein (SERCaMP) assay (AID 1508630); conditions: SH-SY5Y GLuc-SERCaMP (Gaussia luciferase released on ER calcium loss) secretion, thapsigargin, luminescence; series mostly up to 38.4 µM; further: potency means the concentration at half of the fitted maximal effect
Procedure, shortened: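 The SH-SY5Y reporter protocol was run at 3 concentrations up to 38.3 uM (primary) or 11 concentrations (follow-up): 16 h compound, 100 nM thapsigargin for 4 h, then extracellular luciferase luminescence.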

[8] = tested on: SKOV3; assay: Primary qHTS to identify gynecologic anti-cancer compounds using libraries of approved drugs and bioactive compounds (AID 1345084); conditions: Gynecologic cancer cell panel viability, ATPlite luminescence, 48 h; series mostly up to 57.5 µM; further: nearly all actives have a fitted effect of over 55% in size; further: potency means the concentration at half of the fitted maximal effect
Procedure, shortened: (§4)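 ATP-based viability (ATPlite), 1,000 cells/well, 16 h pre-incubation, 48 h compound at 37 C, 5% CO2, 15 min RT before read.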

[9] = qHTS of pediatric cancer cell lines to identify multiple opportunities for drug repurposing: Primary screen for Rh41 cells (AID 1347108);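 further: luminescence drop marks cytotoxic hits; nearly all actives have a fitted effect of over 70% in size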
Procedure, shortened: as §3

[10] = Primary qHTS for inhibitors of nuclear receptor binding SET domain protein 2 (NSD2) in an isogenic RCH-ACV NSD2 p.E1099K mutant (9B) (AID 1645876); conditions: activity change, negative = viability loss: at 44.9 µM (top of the series) unless noted; further: nearly all actives have a fitted effect of over 70% in size; further: potency means the concentration at half of the fitted maximal effect
[11] = tested on: CAOV3; assay: Primary qHTS to identify gynecologic anti-cancer compounds using libraries of approved drugs and bioactive compounds (AID 1345084); conditions: Gynecologic cancer cell panel viability, ATPlite luminescence, 48 h; series mostly up to 57.5 µM; further: nearly all actives have a fitted effect of over 55% in size; further: potency means the concentration at half of the fitted maximal effect
Procedure, shortened: as §4

[12] = Drug repurposing screens with cells derived from glioblastoma tumor samples (AID 1345199); conditions: GBM patient neurospheres viability, ATP luminescence, 48 h; Potency: tumour line A unless noted; series mostly up to 46 µM; further: nearly all actives have a fitted effect of over 40% in size; further: potency means the concentration at half of the fitted maximal effect
Procedure, shortened: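 Primary testing used CD133+ neurospheres from four GBM patients, seven concentrations, 48 h exposure and ATP-based viability; confirmation added three slower-growing patient lines.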

[13] = tested on: UISO; assay: qHTS assay to identify novel small-molecules to repurpose for Merkel cell carcinoma treatment (AID 1296009); conditions: MCC and control cell lines, CellTiter-Glo viability, 72 h; series mostly up to 46 µM; further: nearly all actives have a fitted effect of over 60% in size; further: potency means the concentration at half of the fitted maximal effect
Procedure, shortened: as §2

[14] = tested on: WaGa; assay: as above; conditions: MCC and control cell lines, CellTiter-Glo viability, 72 h; series mostly up to 46 µM
Procedure, shortened: as §2

[15] = qHTS of pediatric cancer cell lines to identify multiple opportunities for drug repurposing: Primary screen for A673 cells (AID 1347092); conditions: A673 Ewing sarcoma viability, CellTiter-Glo ATP luminescence, 48 h; activity change, negative = cytotoxic: at 46 µM (top of the series); further: nearly all actives have a fitted effect of over 45% in size
Procedure, shortened: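 Cells are plated, rested 5 h, dosed by pintool, incubated 48 h, then lysed with CellTiter-Glo and read by luminescence. DMSO is the neutral control; bortezomib at 2.3 uM final is the positive control.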

[16] = qHTS of pediatric cancer cell lines to identify multiple opportunities for drug repurposing: Primary screen for Saos-2 cells (AID 1347097); conditions: Saos-2 viability, CellTiter-Glo ATP luminescence, 48 h; activity change, negative = cytotoxic: at 46 µM (top of the series); further: nearly all actives have a fitted effect of over 40% in size; further: potency means the concentration at half of the fitted maximal effect
Procedure, shortened: as §3

[17] = A High-Content qHTS Against Drug Library for the Identification of Small Molecules that Inhibit DYT1 Early Onset Primary Dystonia-Associated Cell Pathology (AID 1645839; calls by dose curve; further: potency means the concentration at half of the fitted maximal effect)
Procedure, shortened: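 High-content imaging quantified EGFP-TorsinA mislocalization in HEK293-derived cells inducibly expressing DYT1 mutant torsinA, after 48 h exposure to compound given together with tetracycline induction. Cell count served as a toxicity channel alongside %pathology.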

[18] = qHTS of pediatric cancer cell lines to identify multiple opportunities for drug repurposing: Primary screen for SK-N-SH cells (AID 1347098); further: potency means the concentration at half of the fitted maximal effect; nearly all actives have a fitted effect of over 65% in size
Procedure, shortened: as §1

[19] = tested on: DIV17; assay: qHTS profiling for inhibitors of Plasmodium falciparum proliferation (AID 504749); further: nearly all actives have a fitted effect of over 60% in size; further: potency means the concentration at half of the fitted maximal effect; conditions: P. falciparum in erythrocytes, SYBR Green DNA, 72 h; series mostly up to 28.7 µM
Procedure, shortened: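 In a 72 h erythrocytic culture (37 C, humidified, 5% CO2) at 2.5% hematocrit and 0.3% starting parasitemia, compounds were tested; SYBR Green I in detergent lysis buffer stained parasite DNA overnight.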
Tags describe the fitted curve by direction and shape.

UniProt P10635, sequence (P10635 whole entry, looked up): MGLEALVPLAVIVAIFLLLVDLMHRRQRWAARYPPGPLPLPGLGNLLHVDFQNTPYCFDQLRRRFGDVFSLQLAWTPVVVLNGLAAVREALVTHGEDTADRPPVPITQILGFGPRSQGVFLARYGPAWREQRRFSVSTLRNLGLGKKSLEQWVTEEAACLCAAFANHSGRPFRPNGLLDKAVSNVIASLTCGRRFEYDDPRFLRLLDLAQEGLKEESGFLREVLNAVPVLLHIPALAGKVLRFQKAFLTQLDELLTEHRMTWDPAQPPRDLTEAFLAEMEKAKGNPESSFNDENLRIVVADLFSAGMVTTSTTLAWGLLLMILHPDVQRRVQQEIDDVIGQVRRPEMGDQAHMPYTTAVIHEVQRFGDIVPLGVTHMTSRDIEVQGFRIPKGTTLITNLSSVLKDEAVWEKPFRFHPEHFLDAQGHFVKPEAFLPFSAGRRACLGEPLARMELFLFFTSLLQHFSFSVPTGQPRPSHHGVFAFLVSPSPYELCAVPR

## OCc1cccnc1
[1]
  Potency: inactive
[2]
  Potency: inactive
[3]
  Potency: inconclusive: 34.7 µM [inhibitor, single point]
[4]
  Potency: inactive
[5]
  Potency: inactive

## C1=CC2C3C=CC(C3)C2C1 (stereo unspecified)
[6]
  Potency: inactive
[7]
  Potency: inconclusive: 35.5 µM [inhibitor, full curve]
[5]
  Potency: inactive
[8]
  Potency: inconclusive: 70.8 µM [rising, single point]

## Cc1cccc(C)c1NC(=O)C(C)N (stereo unspecified)
[1]
  Potency: inactive
[9]
  Potency: inactive
[7]
  Potency: inconclusive: 2.24 µM [inhibitor, full curve, poor fit]
[3]
  Potency: inactive
[10]
  Potency: inconclusive: 29.9 µM [inhibitor, single point]
[4]
  Potency: inconclusive: 23.7 µM [inhibitor, single point]
[5]
  Potency: inactive
[11]
  Potency: inactive
[12]
  Potency: inconclusive: 3.55 µM [inhibitor, partial curve]

## Cc1onc(-c2ccccc2)c1-c1ccc(S(N)(=O)=O)cc1
[2]
  Potency: inconclusive: 19.5 µM [cytotoxic, partial curve]
[3]
  Potency: inconclusive: 17.4 µM [inhibitor, partial curve]
[10]
  Potency: inconclusive: 29.9 µM [inhibitor, single point] and inconclusive: 14.8 µM [inhibitor, partial curve]
[4]
  Potency: inconclusive: 29.9 µM [inhibitor, single point] and inconclusive: 18.6 µM [inhibitor, partial curve]
[13]
  Potency: inactive
[14]
  Potency: inactive
[11]
  Potency: inactive
[12]
  Potency: inconclusive: 22.4 µM [inhibitor, partial curve, poor fit]

## Cc1cc(=O)oc2cc(O[C@@H]3SC[C@@H](O)[C@H](O)[C@H]3O)ccc12
[15]
  Potency: inactive
[16]
  Potency: inactive
[2]
  Potency: inactive
[17]
  Potency: inconclusive: 3.55 µM [inhibitor, full curve]
[10]
  Potency: inactive
[13]
  Potency: inactive
[14]
  Potency: inactive
[8]
  Potency: inconclusive: 39.8 µM [cytotoxic, single point]

## O=C(O)CCC(=O)O
[18]
  Potency: inconclusive: 3.44 µM [cytotoxic, partial curve, poor fit]
[2]
  Potency: inactive
[7]
  Potency: inconclusive: 28.2 µM [inhibitor, full curve]
[3]
  Potency: inactive
[10]
  Potency: inconclusive: 26.6 µM [inhibitor, single point]
[4]
  Potency: inconclusive: 29.9 µM [inhibitor, single point]
[5]
  Potency: inactive

## CC(=O)N1CCN(c2ccc(O)cc2)CC1
[6]
  Potency: inconclusive: 19.5 µM [cytotoxic, single point]
[2]
  Potency: inactive
[7]
  Potency: inconclusive: 7.08 µM [inhibitor, partial curve, poor fit]
[3]
  Potency: inconclusive: 13.8 µM [inhibitor, partial curve]
[10]
  Potency: inconclusive: 21.1 µM [inhibitor, single point]
[4]
  Potency: inconclusive: 33.5 µM [inhibitor, single point]
[13]
  Potency: inconclusive: 21.1 µM [inhibitor, single point]
[14]
  Potency: active: 23.7 µM
[11]
  Potency: inactive
[8]
  Potency: inactive

## CC1(C)S[C@@H]2[C@H](N=CN3CCCCCC3)C(=O)N2[C@H]1C(=O)O
[7]
  Potency: inconclusive: 31.6 µM [inhibitor, partial curve, poor fit]
[4]
  Potency: inactive
[13]
  Potency: inactive

## O=C(O)Cn1c(C(=O)Nc2nc(-c3ccccc3Cl)cs2)cc2ccccc21
[1]
  Potency: inconclusive: 29.9 µM [cytotoxic, partial curve, poor fit]
[2]
  Potency: inactive
[7]
  Potency: inconclusive: 31.6 µM [inhibitor, partial curve, poor fit]
[17]
  Potency: inconclusive: 25.1 µM [inhibitor, single point]
[3]
  Potency: inconclusive: 38.9 µM [inhibitor, single point]
[4]
  Potency: inconclusive: 33.5 µM [inhibitor, single point]
[13]
  Potency: inactive
[14]
  Potency: inactive
[11]
  Potency: inactive
[8]
  Potency: inconclusive: 1.41 µM [cytotoxic, full curve]

## CN1CCN(C2=Nc3ccccc3Sc3ccc(Cl)cc32)CC1
[6]
  Potency: inactive
[2]
  Potency: inconclusive: 19.5 µM [cytotoxic, partial curve]
[7]
  Potency: inconclusive: 28.2 µM [inhibitor, single point] and inconclusive: 25.1 µM [inhibitor, single point]
[10]
  Potency: inconclusive: 26.6 µM [inhibitor, single point]
[4]
  Potency: inconclusive: 33.5 µM [inhibitor, single point]
[13]
  Potency: inactive
[14]
  Potency: inconclusive: 33.5 µM [inhibitor, single point]
[12]
  Potency: active: 7.94 µM
[19]
  Potency: inconclusive: 9.53 µM [inhibitor, partial curve]

## C[N+](C)(C)CCCCCC[N+](C)(C)C
[1]
  Potency: inactive
[6]
  Potency: inactive
[16]
  Potency: inactive
[7]
  Potency: inconclusive: 10 µM [inhibitor, partial curve, poor fit]
[3]
  Potency: inactive
[13]
  Potency: inactive
[8]
  Potency: inactive
[19]
  Potency: inactive

## C[C@H]1NCc2cc(-c3ccc4c(=O)c(C(=O)O)cn(C5CC5)c4c3OC(F)F)ccc21
[7]
  Potency: inactive
[13]
  Potency: inactive
[8]
  Potency: inconclusive: 2.51 µM [rising, single point]

## CCNC(=O)NCc1cccc(Cl)c1
[16]
  Potency: inconclusive: 29.9 µM [cytotoxic, single point]
[9]
  Potency: inactive
[4]
  Potency: inconclusive: 33.5 µM [inhibitor, single point]
[13]
  Potency: inactive
[14]
  Potency: inactive
[12]
  Potency: inactive
[19]
  Potency: inconclusive: 15.1 µM [inhibitor, partial curve, poor fit]
